System: type III secretion system
Conditions: sheep red blood cells, EPEC cesT defective strain, 37° C., 90-150 minutes, hemoglobin at 550 nm
Method: Test was performed according to method for detecting substances inhibiting the bacterial type III secretion system and function of secretory proteins thereof which was established by Omura et al. (WO 02/057760A1 and corresponding U.S. Pat. No. 6,586,200). One loopful enteropathogenic E. coli cesT defective strain (WO 02/057760A1) was inoculated in LB liquid medium (EB media 2.5%, Funakoshi Co. Ltd., Japan) (5 ml) and cultured at 37° C. for 12 hours without shaking. […]
Erythrocytes was washed three times by centrifugation of the erythrocytes suspension, which was prepared by adding physiological saline (40 ml) to the sheep red blood cells (8 ml) (obtainable from Nippon Biological Materials Center, Japan), at 4° C. at 2500 rpm for 5 minutes. Weight of the erythrocyte pellets was measured. […] The thus prepared E. coli suspension and erythrocyte suspension were mixed in equal quantities. […] Eluted hemoglobin was measured at 550 nm by using automatic microplate reader (Bio-Instruments Inc., U.S.A.). The hemolytic inhibitory activity is calculated by the following equation. […]

Compound	drug concentration causing 50 % hemolytic inhibitory activity (IC50) [µg/mL]
CC(NC(=O)C1NC(C)C(=O)NC1CCC(O)C(O)CC1CNC(=N)N1C(N)=O)C(=O)NC(C(=O)O)C(C)C (centres unmarked) [K01-0509-A2 substance]	3.2
CC(NC(=O)C1NC(C)C(=O)NC1CCC(O)C(O)CC1CNC(=N)N1C(N)=O)C(=O)NC(C(=O)O)C(C)C (centres unmarked) [K01-0509-A1 substance]	4.2
